The results in this text go back to the supplement of paper PMC4604168 (melanoma cell lines).

Among the test systems are A101D; A2058; A375.
Holding throughout (assay): cell count relative to DMSO control; melanoma cells; higher = more viable cells
What all share (conditions): library dose: standard library concentration; 72 h

Some of the results follow. Repeats are few or missing, and single values can be far off.
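Also: cells treated in 1,536-well plates, then fixed and DAPI-stained, with nuclei counted from automated high-throughput microscope images.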

In the case of `Cc1cn(-c2cc(NC(=O)c3ccc(C)c(Nc4nccc(-c5cccnc5)n4)c3)cc(C(F)(F)F)c2)cn1` [nilotinib] + Cn1cnc2c(F)c(Nc3ccc(Br)cc3Cl)c(C(=O)NOCCO)cc21 [selumetinib] (first compound 1 µM, partner dose 0.075 µM), the cell count amounted to 60.6% with A101D, 112% in the test on A2058 and 99.5% in the test with A375.

With `Cc1cc(Nc2cc(N3CCN(C)CC3)nc(/C=C/c3ccccc3)n2)n[nH]1` + C=C(c1ccc(C(=O)O)cc1)c1cc2c(cc1C)C(C)(C)CCC2(C)C [Bexarotene] (first compound 0.2 µM, partner dose 10 µM), the cell count worked out at 106% with A101D, 120% in the test with A2058 and 93.4% in the test on A375.

As to `Cc1cn(-c2cc(NC(=O)c3ccc(C)c(Nc4nccc(-c5cccnc5)n4)c3)cc(C(F)(F)F)c2)cn1` [nilotinib] + Cc1ccc(NC(=O)c2cccc(N(C)C)c2)cc1NC(=O)c1ccc(O)cc1 [ZM336372] (first compound 1 µM, partner dose 10 µM), the results for the cell count with A101D, with A2058 and in the test on A375 were 90.1%, 137% and 118%, respectively.

Turning to `CC(C)C[C@H](NC(=O)[C@H](Cc1ccccc1)NC(=O)c1cnccn1)B(O)O` [Bortezomib] + C[C@@H](Oc1cc(-c2cnn(C3CCNCC3)c2)cnc1N)c1c(Cl)ccc(F)c1Cl [Crizotinib] (first compound 0.005 µM, partner dose 1 µM), the cell count was determined as 12.8% with A101D, 17.4% in the test with A2058 and 79.6% in the test with A375.

Regarding `Cc1cc(Nc2cc(N3CCN(C)CC3)nc(/C=C/c3ccccc3)n2)n[nH]1` + Cn1nnc2c(C(N)=O)ncn2c1=O [temozolomide] (first compound 0.2 µM, partner dose 10 µM), the cell count in the test on A101D was 85.1%; with A2058, 44.5%; in the test on A375, 97.8%.
